One experiment addresses T1, Flag-NEURL1 (UniProt Q923S6).
T1 sequence: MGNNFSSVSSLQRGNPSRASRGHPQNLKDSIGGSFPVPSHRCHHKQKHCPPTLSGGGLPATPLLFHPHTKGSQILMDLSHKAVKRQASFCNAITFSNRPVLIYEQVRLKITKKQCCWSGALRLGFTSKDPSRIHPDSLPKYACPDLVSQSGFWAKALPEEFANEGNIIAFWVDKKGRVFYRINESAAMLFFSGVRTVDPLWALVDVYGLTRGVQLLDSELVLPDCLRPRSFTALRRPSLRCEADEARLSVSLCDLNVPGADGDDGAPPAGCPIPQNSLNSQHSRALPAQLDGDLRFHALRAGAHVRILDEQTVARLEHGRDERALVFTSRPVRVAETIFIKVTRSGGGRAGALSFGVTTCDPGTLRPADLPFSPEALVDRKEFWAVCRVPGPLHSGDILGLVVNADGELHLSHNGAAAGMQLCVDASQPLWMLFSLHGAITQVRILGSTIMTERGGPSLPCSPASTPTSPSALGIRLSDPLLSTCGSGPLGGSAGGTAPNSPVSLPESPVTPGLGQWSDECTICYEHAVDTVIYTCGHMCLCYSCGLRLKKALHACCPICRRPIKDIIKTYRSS
The experiment in a line: co-IP; proteins co-expressed in HEK293-FT cells; lysis in 20 mM Tris HCl pH 7.4, 200 mM NaCl, 1 mM EDTA, 0.5% NP-40; precipitation by the tags (V5- or Flag-agarose, E2 antibody on Protein A sepharose) overnight at +4 °C; immunoblot.

By UniProt entry, the sequences of proteins in these tests, tags left out.
UniProt P0C1Q2: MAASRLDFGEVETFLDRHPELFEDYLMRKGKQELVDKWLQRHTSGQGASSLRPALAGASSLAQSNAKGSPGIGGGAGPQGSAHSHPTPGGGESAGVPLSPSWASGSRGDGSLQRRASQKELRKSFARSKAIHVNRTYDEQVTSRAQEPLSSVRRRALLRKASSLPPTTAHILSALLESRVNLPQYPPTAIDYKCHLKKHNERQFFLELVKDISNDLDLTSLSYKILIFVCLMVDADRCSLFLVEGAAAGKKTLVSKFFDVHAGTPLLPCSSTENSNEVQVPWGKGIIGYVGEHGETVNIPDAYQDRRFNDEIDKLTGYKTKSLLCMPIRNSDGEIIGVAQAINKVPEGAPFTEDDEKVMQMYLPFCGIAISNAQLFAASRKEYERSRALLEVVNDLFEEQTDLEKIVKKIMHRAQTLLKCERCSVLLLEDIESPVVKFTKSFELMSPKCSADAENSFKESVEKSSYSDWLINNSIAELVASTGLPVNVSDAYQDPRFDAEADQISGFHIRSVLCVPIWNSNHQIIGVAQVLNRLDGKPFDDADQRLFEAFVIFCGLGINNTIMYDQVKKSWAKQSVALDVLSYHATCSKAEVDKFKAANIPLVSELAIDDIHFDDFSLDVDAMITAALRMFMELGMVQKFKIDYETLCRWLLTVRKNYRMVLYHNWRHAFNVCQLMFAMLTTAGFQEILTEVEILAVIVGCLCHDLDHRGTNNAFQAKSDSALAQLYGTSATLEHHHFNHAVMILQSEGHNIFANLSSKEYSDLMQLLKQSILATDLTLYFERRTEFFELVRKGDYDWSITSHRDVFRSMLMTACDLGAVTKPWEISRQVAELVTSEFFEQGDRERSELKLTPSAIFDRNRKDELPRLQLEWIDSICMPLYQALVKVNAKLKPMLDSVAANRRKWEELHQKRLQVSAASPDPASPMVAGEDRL

For experiment [1], the target named is T2, endogenous NEURL1 (human (endogenous in HEK293-FT)) (UniProt O76050).
T2 sequence: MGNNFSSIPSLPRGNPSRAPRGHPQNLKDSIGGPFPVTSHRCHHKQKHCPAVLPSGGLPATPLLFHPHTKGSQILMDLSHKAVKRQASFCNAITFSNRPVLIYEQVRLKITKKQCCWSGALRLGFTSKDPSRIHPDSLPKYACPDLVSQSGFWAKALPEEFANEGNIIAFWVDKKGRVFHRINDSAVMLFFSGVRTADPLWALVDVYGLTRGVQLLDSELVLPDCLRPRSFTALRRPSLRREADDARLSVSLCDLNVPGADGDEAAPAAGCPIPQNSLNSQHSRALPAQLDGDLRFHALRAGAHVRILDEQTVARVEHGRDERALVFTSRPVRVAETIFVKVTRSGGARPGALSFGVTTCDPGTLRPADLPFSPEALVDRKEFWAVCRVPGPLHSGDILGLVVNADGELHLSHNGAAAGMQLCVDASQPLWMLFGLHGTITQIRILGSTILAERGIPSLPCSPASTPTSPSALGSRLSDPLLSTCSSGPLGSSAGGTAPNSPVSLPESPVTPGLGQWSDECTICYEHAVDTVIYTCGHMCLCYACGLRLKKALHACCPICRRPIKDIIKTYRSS
Description: co-IP; HEK293-FT cells expressing PDE9A-V5His with or without untagged NEURL1; precipitation with custom-raised polyclonal NEURL1 antibodies on Protein A sepharose; immunoblot with V5 antibody.

The target of another experiment is T3, Flag-NEURL1B (human) (UniProt A8MQ27).
T3 sequence: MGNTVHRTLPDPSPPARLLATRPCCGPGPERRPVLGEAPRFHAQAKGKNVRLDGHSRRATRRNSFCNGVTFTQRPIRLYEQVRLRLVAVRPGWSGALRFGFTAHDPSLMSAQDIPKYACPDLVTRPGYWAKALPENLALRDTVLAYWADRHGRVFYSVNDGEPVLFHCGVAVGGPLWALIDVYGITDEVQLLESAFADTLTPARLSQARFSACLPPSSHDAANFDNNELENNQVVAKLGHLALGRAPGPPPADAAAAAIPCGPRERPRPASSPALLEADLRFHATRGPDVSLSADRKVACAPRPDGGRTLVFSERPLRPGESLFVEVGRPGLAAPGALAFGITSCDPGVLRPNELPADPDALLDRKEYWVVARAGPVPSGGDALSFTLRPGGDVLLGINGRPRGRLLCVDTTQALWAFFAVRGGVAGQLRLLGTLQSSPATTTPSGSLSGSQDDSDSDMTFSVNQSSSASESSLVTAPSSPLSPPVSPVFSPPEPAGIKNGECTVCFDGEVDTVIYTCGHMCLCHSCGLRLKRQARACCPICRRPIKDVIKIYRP
Description: co-IP; proteins co-expressed in HEK293-FT cells; lysis in 20 mM Tris HCl pH 7.4, 200 mM NaCl, 1 mM EDTA, 0.5% NP-40; precipitation by the tags (V5- or Flag-agarose, E2 antibody on Protein A sepharose) overnight at +4 °C; immunoblot.

The next experiment addresses T4, NEURL1-Flag (UniProt Q923S6).
T4 sequence: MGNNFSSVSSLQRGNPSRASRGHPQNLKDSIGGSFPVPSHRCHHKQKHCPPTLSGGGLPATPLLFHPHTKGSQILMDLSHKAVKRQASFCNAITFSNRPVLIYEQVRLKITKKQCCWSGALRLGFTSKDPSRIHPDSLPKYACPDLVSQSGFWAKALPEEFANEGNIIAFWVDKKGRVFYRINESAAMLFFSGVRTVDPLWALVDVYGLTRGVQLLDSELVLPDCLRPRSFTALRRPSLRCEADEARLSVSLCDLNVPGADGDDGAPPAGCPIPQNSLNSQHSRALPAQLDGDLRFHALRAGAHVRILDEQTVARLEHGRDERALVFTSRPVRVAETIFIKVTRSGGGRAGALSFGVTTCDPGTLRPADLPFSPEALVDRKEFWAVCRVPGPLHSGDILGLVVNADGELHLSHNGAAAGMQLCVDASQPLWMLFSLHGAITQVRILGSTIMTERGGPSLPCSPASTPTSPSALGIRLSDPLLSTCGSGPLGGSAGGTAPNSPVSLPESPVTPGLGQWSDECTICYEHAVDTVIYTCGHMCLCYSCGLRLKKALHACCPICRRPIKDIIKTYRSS
The description is as above.

The next experiment has as its target T5, PDE9A-V5His (rat) (UniProt Q8QZV1).
T5 sequence: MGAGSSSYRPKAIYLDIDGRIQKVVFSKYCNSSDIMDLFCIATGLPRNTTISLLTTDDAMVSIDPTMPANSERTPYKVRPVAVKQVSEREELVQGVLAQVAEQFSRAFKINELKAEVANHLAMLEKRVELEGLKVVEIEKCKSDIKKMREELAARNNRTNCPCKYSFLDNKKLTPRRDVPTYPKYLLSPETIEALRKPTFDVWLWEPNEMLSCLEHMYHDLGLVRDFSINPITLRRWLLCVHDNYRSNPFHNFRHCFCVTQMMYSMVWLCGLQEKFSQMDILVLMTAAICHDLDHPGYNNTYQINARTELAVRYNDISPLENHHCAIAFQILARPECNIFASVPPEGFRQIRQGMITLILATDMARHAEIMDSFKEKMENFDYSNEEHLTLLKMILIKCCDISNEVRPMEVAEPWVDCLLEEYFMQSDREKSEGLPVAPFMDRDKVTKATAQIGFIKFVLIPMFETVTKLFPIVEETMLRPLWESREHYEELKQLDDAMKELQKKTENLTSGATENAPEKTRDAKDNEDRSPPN
The experiment is described as above.

No constants are given. Whether binding was seen depends on the method and setting. In cells and extracts the contact can be indirect. Some binding calls cover weakened binding; strength is not graded here. Sequences can lack the tags named with a protein.

For the molecule “E2-tagged PDE11A (from UniProt P0C1Q2 1-933) (enzyme)”, the binding entry in the experiment with Flag-NEURL1 is listed as “no binding”.

B1: PDE9A-cat-E2 (domain or fragment, UniProt Q8QZV1 217-534)
chain: MYHDLGLVRDFSINPITLRRWLLCVHDNYRSNPFHNFRHCFCVTQMMYSMVWLCGLQEKFSQMDILVLMTAAICHDLDHPGYNNTYQINARTELAVRYNDISPLENHHCAIAFQILARPECNIFASVPPEGFRQIRQGMITLILATDMARHAEIMDSFKEKMENFDYSNEEHLTLLKMILIKCCDISNEVRPMEVAEPWVDCLLEEYFMQSDREKSEGLPVAPFMDRDKVTKATAQIGFIKFVLIPMFETVTKLFPIVEETMLRPLWESREHYEELKQLDDAMKELQKKTENLTSGATENAPEKTRDAKDNEDRSPPN
With B1, the binding result in the experiment with Flag-NEURL1 is given as “binds”.

B2: PDE9A-E2 (enzyme, UniProt Q8QZV1 1-534)
chain: MGAGSSSYRPKAIYLDIDGRIQKVVFSKYCNSSDIMDLFCIATGLPRNTTISLLTTDDAMVSIDPTMPANSERTPYKVRPVAVKQVSEREELVQGVLAQVAEQFSRAFKINELKAEVANHLAMLEKRVELEGLKVVEIEKCKSDIKKMREELAARNNRTNCPCKYSFLDNKKLTPRRDVPTYPKYLLSPETIEALRKPTFDVWLWEPNEMLSCLEHMYHDLGLVRDFSINPITLRRWLLCVHDNYRSNPFHNFRHCFCVTQMMYSMVWLCGLQEKFSQMDILVLMTAAICHDLDHPGYNNTYQINARTELAVRYNDISPLENHHCAIAFQILARPECNIFASVPPEGFRQIRQGMITLILATDMARHAEIMDSFKEKMENFDYSNEEHLTLLKMILIKCCDISNEVRPMEVAEPWVDCLLEEYFMQSDREKSEGLPVAPFMDRDKVTKATAQIGFIKFVLIPMFETVTKLFPIVEETMLRPLWESREHYEELKQLDDAMKELQKKTENLTSGATENAPEKTRDAKDNEDRSPPN
For B2, the binding entry in the experiment with Flag-NEURL1 was “binds”.

B3: PDE9A-V5His (enzyme, UniProt Q8QZV1 1-534)
chain: MGAGSSSYRPKAIYLDIDGRIQKVVFSKYCNSSDIMDLFCIATGLPRNTTISLLTTDDAMVSIDPTMPANSERTPYKVRPVAVKQVSEREELVQGVLAQVAEQFSRAFKINELKAEVANHLAMLEKRVELEGLKVVEIEKCKSDIKKMREELAARNNRTNCPCKYSFLDNKKLTPRRDVPTYPKYLLSPETIEALRKPTFDVWLWEPNEMLSCLEHMYHDLGLVRDFSINPITLRRWLLCVHDNYRSNPFHNFRHCFCVTQMMYSMVWLCGLQEKFSQMDILVLMTAAICHDLDHPGYNNTYQINARTELAVRYNDISPLENHHCAIAFQILARPECNIFASVPPEGFRQIRQGMITLILATDMARHAEIMDSFKEKMENFDYSNEEHLTLLKMILIKCCDISNEVRPMEVAEPWVDCLLEEYFMQSDREKSEGLPVAPFMDRDKVTKATAQIGFIKFVLIPMFETVTKLFPIVEETMLRPLWESREHYEELKQLDDAMKELQKKTENLTSGATENAPEKTRDAKDNEDRSPPN
As to B3, the binding entry (in experiment [1]; in the experiment with Flag-NEURL1; with Flag-NEURL1B (human); with NEURL1-Flag) was “binds” each time.

B4: Flag-NEURL1 (protein, UniProt Q923S6 1-574)
chain: MGNNFSSVSSLQRGNPSRASRGHPQNLKDSIGGSFPVPSHRCHHKQKHCPPTLSGGGLPATPLLFHPHTKGSQILMDLSHKAVKRQASFCNAITFSNRPVLIYEQVRLKITKKQCCWSGALRLGFTSKDPSRIHPDSLPKYACPDLVSQSGFWAKALPEEFANEGNIIAFWVDKKGRVFYRINESAAMLFFSGVRTVDPLWALVDVYGLTRGVQLLDSELVLPDCLRPRSFTALRRPSLRCEADEARLSVSLCDLNVPGADGDDGAPPAGCPIPQNSLNSQHSRALPAQLDGDLRFHALRAGAHVRILDEQTVARLEHGRDERALVFTSRPVRVAETIFIKVTRSGGGRAGALSFGVTTCDPGTLRPADLPFSPEALVDRKEFWAVCRVPGPLHSGDILGLVVNADGELHLSHNGAAAGMQLCVDASQPLWMLFSLHGAITQVRILGSTIMTERGGPSLPCSPASTPTSPSALGIRLSDPLLSTCGSGPLGGSAGGTAPNSPVSLPESPVTPGLGQWSDECTICYEHAVDTVIYTCGHMCLCYSCGLRLKKALHACCPICRRPIKDIIKTYRSS
As for B4, in the experiment with PDE9A-V5His (rat), the binding result is “binds”.

B5: NEURL1-Flag (protein, UniProt Q923S6 1-574)
chain: MGNNFSSVSSLQRGNPSRASRGHPQNLKDSIGGSFPVPSHRCHHKQKHCPPTLSGGGLPATPLLFHPHTKGSQILMDLSHKAVKRQASFCNAITFSNRPVLIYEQVRLKITKKQCCWSGALRLGFTSKDPSRIHPDSLPKYACPDLVSQSGFWAKALPEEFANEGNIIAFWVDKKGRVFYRINESAAMLFFSGVRTVDPLWALVDVYGLTRGVQLLDSELVLPDCLRPRSFTALRRPSLRCEADEARLSVSLCDLNVPGADGDDGAPPAGCPIPQNSLNSQHSRALPAQLDGDLRFHALRAGAHVRILDEQTVARLEHGRDERALVFTSRPVRVAETIFIKVTRSGGGRAGALSFGVTTCDPGTLRPADLPFSPEALVDRKEFWAVCRVPGPLHSGDILGLVVNADGELHLSHNGAAAGMQLCVDASQPLWMLFSLHGAITQVRILGSTIMTERGGPSLPCSPASTPTSPSALGIRLSDPLLSTCGSGPLGGSAGGTAPNSPVSLPESPVTPGLGQWSDECTICYEHAVDTVIYTCGHMCLCYSCGLRLKKALHACCPICRRPIKDIIKTYRSS
B5: the binding result with PDE9A-V5His (rat) was “binds”.

B6: Flag-NEURL1B (protein, UniProt A8MQ27 1-555)
chain: MGNTVHRTLPDPSPPARLLATRPCCGPGPERRPVLGEAPRFHAQAKGKNVRLDGHSRRATRRNSFCNGVTFTQRPIRLYEQVRLRLVAVRPGWSGALRFGFTAHDPSLMSAQDIPKYACPDLVTRPGYWAKALPENLALRDTVLAYWADRHGRVFYSVNDGEPVLFHCGVAVGGPLWALIDVYGITDEVQLLESAFADTLTPARLSQARFSACLPPSSHDAANFDNNELENNQVVAKLGHLALGRAPGPPPADAAAAAIPCGPRERPRPASSPALLEADLRFHATRGPDVSLSADRKVACAPRPDGGRTLVFSERPLRPGESLFVEVGRPGLAAPGALAFGITSCDPGVLRPNELPADPDALLDRKEYWVVARAGPVPSGGDALSFTLRPGGDVLLGINGRPRGRLLCVDTTQALWAFFAVRGGVAGQLRLLGTLQSSPATTTPSGSLSGSQDDSDSDMTFSVNQSSSASESSLVTAPSSPLSPPVSPVFSPPEPAGIKNGECTVCFDGEVDTVIYTCGHMCLCHSCGLRLKRQARACCPICRRPIKDVIKIYRP
For B6, in the experiment with PDE9A-V5His (rat), the binding result is reported as “binds”.

For the origin of these results see publication PMC6506465.
